Source: PubChem BioAssay AID1656 (Sanford-Burnham Center for Chemical Genomics, 2009)
The other results are listed elsewhere or left out. The main result of the screen is listed elsewhere. These columns were measured beside it and carry no call. Compounds called inactive in the main read-out are mostly missing here.

Test: inhibitors of hepatocyte lipid droplet formation, primary screen, imaging, high-throughput imaging, BODIPY stain (AID 1656);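 also: cells counted across two imaged fields per well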
Settings: AML12 mouse hepatocytes, oleate lipid droplets, measured here: cell count, cytotoxicity flag, at 6.5 µM
Procedure, shortened: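 Test system: AML12 hepatocytes (mouse); reagent: oleate loading, 100 µM; dosing: one dose, 6.5 µM compound; incubation: overnight exposure; signal: fluorescence imaging, 20x objective, two fields per well; read-out basis: % inhibition of corrected integrated BODIPY droplet signal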

| Compound | cell count [cells] |
| --- | --- |
| C=CCOC(=O)c1[nH]c2c(c1C)C(=O)CC(c1ccco1)C2 (configuration not stated) | 196 |
| O=c1cc(-c2ccccc2)[nH]c2cc(Cl)ccc12 | 292 |
| Cc1ccc(/C=N/NC(=O)c2cc(-c3cccnc3)nc3ccccc23)cc1 | 225 |
| C#CC(=O)N(c1ccc(OC)c(OC)c1)C(C(=O)NC1CCCC1)c1cccs1 (configuration not stated) | 566 |
| Cc1cc(C)cc(NC(=O)CCC(=O)Nc2cc(C)on2)c1 | 771 |
| Cc1ccc(-c2cc(C(=O)N/N=C/c3c(C)nn(-c4ccccc4)c3C)[nH]n2)cc1 | 283 |
| CC(C)CCOc1ccc(C(=O)NCC(c2ccco2)N(C)C)cc1 (configuration not stated) | 814 |
| Cc1nn(-c2ccccc2)c(C)c1/C=N/NC(=O)c1cc(-c2ccccc2)n[nH]1 | 215 |
| CC(C)n1c(O)c(N=NC(=O)C2COc3ccccc3O2)c2ccccc21 (configuration not stated) | 749 |
| Cc1cc(C(c2ccc(O)cc2)c2cc(C)c(O)cc2C)c(C)cc1O | 798 |
| Cc1ccc(Cn2c(=N)n(CC(=O)c3ccc([N+](=O)[O-])cc3)c3ccccc32)cc1 | 285 |
| O=C(NCc1ccccc1)C(c1ccccc1F)N(C(=O)c1csnn1)C1CCCC1 (configuration not stated) | 802 |
| O=C(NCCc1ccccc1)c1oc2ccccc2c1COc1ccccc1 | 678 |
| Cc1cc2nn(-c3ccc(Cl)cc3)nc2cc1N | 809 |
| O=C(Nc1ccc(-c2csc(Nc3ccc(Cl)cc3)n2)cc1)c1cccc(C(F)(F)F)c1 | 721 |
| C#CC(=O)N(c1ccc(OC)cc1OC)C(C(=O)NC1CCCC1)c1cccs1 (configuration not stated) | 614 |
| CC(C)Oc1ccc(C(=O)OC(C)C(=O)Nc2nc(-c3cccc([N+](=O)[O-])c3)cs2)cc1 (configuration not stated) | 720 |
| Cc1cc(N(CCO)CCO)ccc1N=Nc1cc(F)ccc1F | 691 |
| COc1ccc(S(=O)(=O)N2CCOCC2)cc1NC(=O)c1ccccc1C | 621 |
| Cc1ccc(-c2cc(C(F)F)n3ncc(C(=O)N4CCc5ccccc54)c3n2)cc1 | 123 |
| CCC(C)C(=O)N1c2ccccc2C(=C2SC(C(=O)OC)=C(C(=O)OC)S2)C(=S)C1(C)C (configuration not stated) | 615 |
| CCOc1ccccc1CNS(=O)(=O)c1ccc(-c2cnc(C3CC3)o2)cc1 | 288 |
| COc1ccc(-c2cnc(SCC(=O)Nc3nc(C(C)(C)C)cs3)n2Cc2ccco2)cc1 | 689 |
| CN(C)CCCN(C(=O)c1ccc2ccccc2c1)c1nc2cc3c(cc2s1)OCO3 | 837 |
| COc1ccccc1Nc1ccc(NS(=O)(=O)c2ccc(C(C)=O)cc2)cc1 | 782 |
| CS(=O)(=O)N(Cc1ccc(Cl)cc1)c1ccc(C(=O)N/N=C/c2cc3ccccc3nc2Cl)cc1 | 577 |

| Compound | cell count [cells] |
| --- | --- |
| O=C(COc1ccc(C2SCCS2)cc1)Nc1ccc(Cl)cc1 | 248 |
| Cc1nccn1S(=O)(=O)c1cc([N+](=O)[O-])ccc1Cl | 13 |
| O=[N+]([O-])c1cc2c(c(CSc3nnc(Nc4ccccc4)s3)c1)OCOC2 | 740 |
| O=C1C(NS(=O)(=O)c2cccs2)=C(N2CCN(c3cccc(Cl)c3)CC2)C(=O)c2ccccc21 | 765 |
| COC(=O)c1cc(C(=O)N2CCN(c3ccccc3OC)CC2)cc([N+](=O)[O-])c1 | 265 |
| O=C(N/N=C/C(Br)=C\c1ccccc1)c1n[nH]c2c1CCC2 | 257 |
| O=C(N/N=C/c1ccccc1OC(F)F)c1cc(-c2ccncc2)nc2ccccc12 | 204 |
| COc1cccc(CNC(=O)CCCc2c[nH]c3ccccc23)c1 | 860 |
| CCOc1ccc(CCNC(=O)CSc2cc(=O)n(CC)c3ccccc23)cc1OCC | 636 |
| Cc1ccc(S(=O)(=O)N(C)c2ccc(OCC(=O)Nc3nc4ccccc4s3)cc2)cc1 | 296 |
| O=C1c2cccc3cc([N+](=O)[O-])cc(c23)C(=O)N1CCN1CCCC1 | 197 |
| O=c1[nH]c(=O)n(Cc2ccccc2)c2nc(-c3ccc(Oc4ccc(F)cc4)c([N+](=O)[O-])c3)n(CCO)c12 | 748 |
| COc1ccc(N=NC2C(=O)N(c3ccccc3)N=C2C)cc1 (configuration not stated) | 606 |
| Cc1cc(C)cc(NS(=O)(=O)c2ccc(-c3cnc(C4CC4)o3)cc2)c1 | 228 |
| O=C(Oc1cccc(/C=N/Nc2nc(Nc3ccccc3)nc(N3CCOCC3)n2)c1)c1ccco1 | 587 |
| COC(=O)c1ccc(NS(=O)(=O)c2ccc3c(c2)n(C)c(=O)n3C)cc1 | 810 |
| COc1cccc(CNC(=O)C2CCCN(S(=O)(=O)c3c(C)noc3/C=C/N(C)C)C2)c1 (configuration not stated) | 688 |
| O=C(Cc1ccccc1)Nn1c(-c2ccccc2)nc2ccccc2c1=O | 621 |
| Clc1ccc(Nc2nc(NCCN3CCOCC3)nc(N3CCOCC3)n2)cc1 | 326 |
| Cc1nc2ncccn2c1-c1csc(Nc2ccc(N(C)C)cc2)n1 | 214 |
| CCCCOc1ccccc1C(=O)N(Cc1ccco1)C1CCS(=O)(=O)C1 (configuration not stated) | 678 |
| CCCSC1=C(C#N)C(c2cccs2)C(C(=O)Nc2ccccc2)=C(C)N1 (configuration not stated) | 754 |
| COC(=O)Nc1nc(-c2ccccc2)c(C(=O)c2ccccc2)s1 | 272 |
| CCn1c2ccccc2c2cc(NC(=O)c3cc(OC)cc(OC)c3)ccc21 | 143 |
| CCOc1ccc(CCNC(=O)CS(=O)Cc2nc(-c3ccc(OC)c(OC)c3)oc2C)cc1OCC (configuration not stated) | 726 |
| COc1ccc(-n2c(=O)c3ccccc3n(CC(=O)Nc3cc(C)on3)c2=O)cc1OC | 357 |

| Compound | cell count [cells] |
| --- | --- |
| O=C(COC(=O)CCc1ccccc1)Nc1ccc(F)cc1Cl | 114 |
| O=[N+]([O-])c1cc(Cl)ccc1N1CCN(c2cccc(C(F)(F)F)c2)CC1 | 645 |
| Cc1cccc(OCc2ccc(C(=O)N3CCOCC3)o2)c1 | 97 |
| Cc1ccc(/C=C/C(=O)NCC2COc3ccccc3O2)o1 (configuration not stated) | 698 |
| CC(C)(C)NC(=O)CSc1nc2ccc(Nc3nc(N4CCOCC4)nc(N4CCOCC4)n3)cc2s1 | 659 |
| CCCC(=O)OCC(=O)Nc1ccccc1Sc1ccccc1 | 187 |
| COCCCN=C1NN=C(c2cc(C)n(Cc3ccccc3Cl)c2C)CS1 | 189 |
| CC1CCN(C(=O)c2ccc3c(c2NCCO)C(=O)c2ccccc2C3=O)CC1 | 682 |
| Cc1cccc(NC(=O)Cn2cc(C(=O)C3CC3)c3ccccc32)c1 | 819 |
| C/C=C/COC(=O)c1[nH]c2c(c1C)C(=O)CC(c1ccco1)C2 (configuration not stated) | 207 |
| CCOc1ccc(CCNC(=O)CS(=O)Cc2nc(-c3ccc(OC)cc3)oc2C)cc1OCC (configuration not stated) | 782 |
| Cc1ccc(S(=O)(=O)N2CCCCC2)cc1C(=O)N(C)CCOc1ccccc1 | 865 |
| CNc1nc(C)c(C(=O)c2ccc(Cl)cc2)s1 | 828 |
| COc1ccccc1/C=N\Nc1ccccc1[N+](=O)[O-] | 719 |
| COc1cc2c(cc1NC(=S)NC(=O)c1c(OC)cccc1OC)oc1ccccc12 | 622 |
| CN(NC(=O)c1ccccc1F)c1nc(C(F)(F)F)nc2ccccc12 | 226 |
| COc1ccccc1N1N=C(c2ccc([N+](=O)[O-])cc2)CC1c1ccccc1 (configuration not stated) | 778 |
| CC(C)(C)c1cc(Br)c(O)c(N=Nc2ccc(S(=O)(=O)N3CCOCC3)cc2)c1 | 558 |
| O=C(NCc1cccs1)c1cccnc1Cl | 292 |
| CCC(C)(C)NC(=O)C(c1sccc1C)N(Cc1ccco1)C(=O)c1csnn1 (configuration not stated) | 779 |
| CCOc1ccc(CCNC(=O)c2cc(-c3ccccc3)c(N3CCOCC3)s2)cc1OCC | 775 |
| COc1ccc(Cl)cc1NC(=O)CN1C(=O)NC2(CCCC2)C1=O | 823 |
| COc1ccc(Cl)cc1NC(=O)CCNC(=O)OCc1ccccc1 | 666 |
| COc1cccc(N=Nc2c(C)[nH]n(-c3ccccc3)c2=O)c1 | 748 |
| CC(C)CC(C(=O)O)N1C(=O)C2C3CC(C2C1=O)C1C(c2ccccc2)c2sc(=O)[nH]c2SC31 (configuration not stated) | 164 |
| COc1ccc(C2NCCc3c2[nH]c2ccccc32)cc1COc1ccc(F)cc1 (configuration not stated) | 112 |

| Compound | cell count [cells] |
| --- | --- |
| COc1ccc(S(=O)(=O)N2CCN(C(=O)c3ccc([N+](=O)[O-])o3)CC2)cc1 | 184 |
| COc1ccc(N(Cc2cc(=O)[nH]c3ccccc23)C(C)=O)cc1 | 654 |
| Cc1ccc(CNC(=O)CCCc2c[nH]c3ccccc23)cc1 | 780 |
| CN1CC(=O)Nc2ccc([N+](=O)[O-])cc2C1=O | 566 |
| COc1ccc2c(c1)C(C)=CC(C)(C)N2S(=O)(=O)c1ccc(C)cc1 | 158 |
| COc1ccc(/C=N/NC(=O)CCn2cnc(-c3ccccc3)c2-c2ccccc2)cc1 | 254 |
| O=C(N/N=C/c1ccc(Cl)cc1)c1sccc1OCc1ccc(F)cc1 | 249 |
| Cn1c2c(c(=O)n(C)c1=O)C(c1ccc(Cl)cc1)C(C#N)=C(N)O2 (configuration not stated) | 237 |
| CCOc1ccc(CCNC(=O)Cn2cccc2C(=O)c2ccccc2)cc1OCC | 712 |
| O=C(O)CCCC(=O)Nc1ccc(Br)cc1C(=O)O | 502 |
| Cc1ccc(C=Nc2ccccc2C(N)=O)s1 | 156 |
| CCN1C(=O)/C(=C/C=C2/Sc3ccc4ccccc4c3N2CCO)SC1=S | 598 |
| CCOc1ccc(CCNC(=O)COC(=O)c2cccnc2OCC)cc1OCC | 729 |
| C=CCN(C(=O)c1csnn1)C(C(=O)NCc1ccccc1)c1ccccc1F (configuration not stated) | 786 |
| Cc1cc(NC(=O)c2sccc2C)n(-c2nc3ccccc3[nH]2)n1 | 716 |
| CCOc1ccc(CCNC(=O)CCNC(=O)c2ccccc2Cl)cc1OCC | 708 |
| COC(C[C@@H](O)C[C@@H](O)COCc1ccccc1)OC | 718 |
| CCOc1ccc(NS(=O)(=O)c2ccc(C(=O)N3CCC3)cc2)cc1 | 728 |
| CN(C1=C(NC(=O)c2ccc(Cl)cc2)C(=O)c2ccccc2C1=O)c1ccccc1 | 668 |
| CCOc1ccc(CCNC(=O)COC(=O)c2c(C)nn(-c3ccccc3)c2C)cc1OCC | 847 |
| CCOc1ccc(CCNC(=O)c2cccs2)cc1OCC | 880 |
| C/C(=N\Nc1nc(-c2ccccc2)cs1)c1cccs1 | 659 |
| CCOC(=O)c1ccc(N2CCN(c3ccccc3F)CC2)c(NC(=O)Nc2ccccc2)c1 | 605 |
| COc1ccc(OC)c(Nc2cc(-c3ccccc3)nc(N)n2)c1 | 287 |
